In PMC2782911 (Cancer, 2009):

Tested on: HDACs in MCF7 cells
Experiment: HDAC activity in lysates of MCF7 cells cultured with compound
Settings: SLC5A8 cDNA-transfected MCF7 cells cultured with 1 mM compound

SMILES | reduction of the activity of HDACs
CC(=O)C(=O)O [pyruvate] | 70-80%
O=C(O)C(=O)CBr [3-bromopyruvate] | 70-80%
